The results in this text go back to PubChem BioAssay AID1159614 (National Center for Advancing Translational Sciences (NCATS), 2016).

Structures are written as SMILES. Out of some 45,000 compounds screened, about 65 (0.1%) were called active. Calls come from the whole dose curve; as a rule, active = well fitted activation curve with a large enough effect; inconclusive = small, poorly fitted or top-dose-only effect; inactive = no such curve, though single readings can be large or run the other way. This is one part of the list.

The target in this experiment is Galactocerebrosidase (Homo sapiens) (UniProt P54803). The experiment can be described thus: A Novel Cell-Based Assay to Identify Small Molecules for B -Galactocerebrosidase. Note: 0% is about no effect; nearly all actives have a fitted effect of over 65% in size. Particulars: 145M-Twi-hGALC-G270D cells (Twitcher mouse brain line with human GALC G270D), HMU-beta-Gal fluorescence, 48 h; series mostly up to 57.5 µM; activation: at the top concentration. Put shortly: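 Fluorescence readout: HMU-β-gal cleavage by mutant GALC (0.1 mM final, citrate/phosphate pH 5.2 with 1 mg/mL taurocholate), stopped with carbonate/bicarbonate plus Triton X-100. Cells: murine Twitcher 145M-Twi expressing human G270D GALC; qHTS for activators.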
Sequence of UniProt P54803 (P54803 whole entry, looked up): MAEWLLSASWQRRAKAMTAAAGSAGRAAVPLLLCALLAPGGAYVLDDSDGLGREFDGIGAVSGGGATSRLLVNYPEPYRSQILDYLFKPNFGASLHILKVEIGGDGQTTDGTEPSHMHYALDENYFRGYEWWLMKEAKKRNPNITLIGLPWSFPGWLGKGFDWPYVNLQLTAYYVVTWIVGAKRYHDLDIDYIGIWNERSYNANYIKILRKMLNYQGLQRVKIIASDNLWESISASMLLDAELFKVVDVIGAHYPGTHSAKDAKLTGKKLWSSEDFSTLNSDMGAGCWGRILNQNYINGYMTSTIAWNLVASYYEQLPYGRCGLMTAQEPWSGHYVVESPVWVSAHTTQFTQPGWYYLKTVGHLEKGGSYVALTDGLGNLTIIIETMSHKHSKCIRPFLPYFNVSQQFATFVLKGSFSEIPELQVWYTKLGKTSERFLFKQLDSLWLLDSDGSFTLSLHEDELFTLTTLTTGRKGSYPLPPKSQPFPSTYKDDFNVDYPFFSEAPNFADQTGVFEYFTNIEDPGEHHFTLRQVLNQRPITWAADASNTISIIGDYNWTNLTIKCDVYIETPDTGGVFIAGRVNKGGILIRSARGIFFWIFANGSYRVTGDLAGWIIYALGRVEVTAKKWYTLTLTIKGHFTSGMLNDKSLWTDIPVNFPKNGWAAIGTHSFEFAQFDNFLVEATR
Take `COc1ccc2c(CNCC(C)c3ccccc3)c(C(=O)O)n(Cc3ccc(F)cc3Cl)c2c1` (stereo not drawn): the “activation” value was inactive: 13.9%.
For the compound `O=C1CS(=O)(=O)C2(C(=O)N(Cc3cccc(F)c3)c3ccccc32)N1c1ccccc1` (stereo not drawn), the “activation” value was inactive: -25.1%.
On to `COc1ccc(/C=C(\C#N)c2nc(-c3cc(Cl)ccc3OC)cs2)cc1`, for which the “activation” value is inactive: 5.25%.
In the case of `Oc1ccccc1Nc1nc(-c2ccccc2)c2cc(Cl)ccc2n1` it was inactive: -10.7%; in that of `O=C(CSc1nc2nccnc2c(=O)n1CCc1c[nH]c2ccccc12)Nc1ccccc1F`, inactive: -11.3%.
For the compound `CCN(CC)c1nc(-c2ccc(C(C)(C)C)cc2)nc2ccccc12`, the “activation” value is inactive: 7.4%.
For the compound `Cc1cccc(OCCCC(=O)Nc2sc3c(c2C(N)=O)CCC(C)C3)c1` (stereo not drawn), the “activation” value is inactive: -8.3%.
Take `CCOc1ccc(NC(=O)c2ccc(NC(=O)CCS(=O)(=O)c3cccs3)cc2)cc1`: the “activation” value was inactive: 0.451%.
For `CCOc1ccc(CCNC(=O)CCc2c(C)nc3c(c(C)nn3-c3ccccc3)c2C)cc1OCC`, the “activation” value was inactive: -21.1%.
`COc1cc(OC)c(NC(=O)c2c(C)oc3ncn(C)c(=O)c23)cc1Cl`: the “activation” value was inactive: 1.52%.
For the compound `CCn1cc(C(=O)N2CCN(c3cccc(Cl)c3)CC2)c(=O)c2cc(S(=O)(=O)N3CCOCC3)ccc21`, the “activation” value was inactive: -4.51%.
As for `C[C@]12CCC(=O)C=C1CC[C@H]1[C@@H]3CC[C@](O)(C(=O)CO)[C@@]3(C)C[C@H](O)[C@@]12F`, the figure is inactive: -11.7%; as for `Cc1ccc(Cc2nc3ccccc3nc2SCC(=O)N2CCc3ccccc32)cc1`, inactive: -1.23%.
`Cc1ccc(C2CC(=O)N(Cc3ccccc3F)c3c2c(C)nn3-c2nc(C)cc(C)n2)cc1` (stereo not drawn): the “activation” value is inactive: -20%.
Consider `Cc1c(NC(=O)c2cc([N+](=O)[O-])ccc2N2CCOCC2)cccc1-c1nc2ccccc2o1`, for which the “activation” value is inactive: -10.3%.
In the case of `Cc1ccc(NC(=O)c2nc(S(C)(=O)=O)ncc2N(Cc2ccccc2)Cc2ccco2)c(C)c1`, the “activation” value was inactive: -8.1%.
Consider `CN(C)CCNC(=O)C1CCN(c2nc3ccccc3[nH]2)CC1`, for which the “activation” value was inactive: -7.3%.
As for `COc1ccc(NC(=O)Nc2nnc(N3CCCCCC3)s2)cc1`, the figure is inactive: -10.5%; as for `O=C(CSc1ccc(-c2ccccn2)nn1)Nc1ccc(F)c(F)c1`, inactive: -12.3%.
As for `Cc1ccc(CNC(=O)Cn2c3ncccc3c(=O)n2-c2ccccc2)cc1`, the figure is inactive: -4.71%; as for `COc1ccc(NC(=O)c2nnn(Cc3ccccc3C)c2N)c(OC)c1`, inactive: -12%.
Regarding `CNC[C@H](O)c1cccc(O)c1`, the “activation” value is inactive: -8.84%.
As for `Cc1nn(-c2ccc(F)cc2)c(-n2cccc2)c1C(=O)N1CCN(c2ccc(F)cc2)CC1`, the figure is inactive: -38.7%; as for `Cc1ccc(C(=O)Nc2c(-c3ccccc3)nc3ccccn23)cc1C`, inactive: -1.28%.
For the compound `Cc1cccc(-c2nc(SCc3ccc(Br)cc3)n3[nH]c(=O)cc3n2)c1`, the “activation” value was inactive: -21%.
As for `Cn1nc(C(=O)Nc2cc(F)ccc2F)c2c1-c1ccccc1SC2`, the “activation” value was inactive: -1.04%.
In the case of `CC1CCCCN1c1csc2ccc(F)cc2c1=O` (stereo not drawn), the “activation” value was inactive: -6.78%.
As for `CCOC(=O)c1cnn(-c2ccc(OC)cc2)c1C1CCN(C(=O)OC(C)(C)C)CC1`, the figure is inactive: -17.5%; as for `CSc1nc2sc3c(c2c(=O)n1-c1ccc(C)c(Cl)c1)CCN(C(C)=O)C3`, inactive: -11.3%.
In the case of `COc1cc(C(=O)N(Cc2ccc(C(C)C)cc2)C2CCS(=O)(=O)C2)cc(OC)c1OC` (stereo not drawn), the “activation” value is inactive: -24.8%.
Consider `CCOc1ccc(CCNC(=O)c2ccc3c(c2)c(C)c(C)n3C)cc1`, for which the “activation” value is inactive: -8.4%.
In the case of `CN1C(=O)CC(C)(c2ccccc2)C1=O` (stereo not drawn) it was inactive: -9.56%; in that of `COC(=O)c1ccc(NC(=O)CSc2nc(=O)n(Cc3ccco3)c3c2CCC3)cc1`, inactive: -3.86%.
`Cc1ccccc1C(=O)N1CCC(c2nc3ccccc3s2)CC1`: the “activation” value was inactive: -14.2%.
In the case of `COc1cc(NC(=O)c2nnn(Cc3ccc(F)cc3)c2N)cc(OC)c1` it was inactive: -10.8%; in that of `Cc1[nH]n2c(=O)cc(-c3ccccc3Cl)nc2c1-c1ccccc1`, inactive: -0.454%.
As to `CCn1c(SCc2ccccc2)nnc1-c1nonc1NC(C)=O`, the “activation” value is inactive: -9.51%.
Regarding `CCC(=O)N1CCc2cc(Br)cc(S(=O)(=O)NCCc3ccc(OC)c(OC)c3)c21`, the “activation” value was inactive: -10.3%.
In the case of `O=C(NCCCc1nc2ccccc2n1Cc1ccccc1Cl)C1CCCCC1` it was inactive: 3.81%; in that of `CC(=O)C1=C(OC(=O)C(C)C)c2ccccc2S(=O)(=O)N1Cc1ccccc1`, inactive: -8.01%.
Regarding `CCN(C(=O)CSc1nc2ccccc2n1CC(=O)Nc1cccc(C#N)c1)c1ccccc1`, the “activation” value is inactive: -26.8%.
Consider `Cc1ccc(CNC(=O)CC2Oc3ccccc3NC2=O)cc1` (stereo not drawn), for which the “activation” value was inactive: -11.8%.
As for `Cc1cc(NC(=O)CN2C(=O)C(C)(C)c3ccccc32)ccc1Br`, the “activation” value is inactive: -12%.
As for `COc1ccc(C(CC(=O)Nc2ccc(F)c(Cl)c2)N2Cc3ccccc3C2=O)cc1OC` (stereo not drawn), the “activation” value is inactive: -0.365%.
As for `CCOC(=O)C1CCCN(C(=O)Cn2ncc3c([nH]c4ccccc43)c2=O)C1` (stereo not drawn), the figure is inactive: -12.5%; as for `CCN(CC)CCNC(=O)c1ccc(NC(C)=O)cc1`, inactive: -8.3%.
As for `CC(C)c1ccc(NS(=O)(=O)c2ccc3[nH]cc(C(=O)NC4CCCC4)c(=O)c3c2)cc1`, the “activation” value was inactive: -15%.
As for `Cc1ccc(N2CC3=C(C2=O)C(c2ccc(Br)cc2)NC(=O)N3C)cc1` (stereo not drawn), the figure is inactive: -2.51%; as for `O=C1Cc2cc(S(=O)(=O)N3CCN(c4ccccc4)CC3)ccc2N1`, inactive: -1.22%; as for `Cc1ccc(-c2nc(C(=O)NCc3ccc(Cl)cc3)c3n2CCCCC3)cc1`, inactive: 3.82%.
In the case of `Cc1ccccc1Nc1sc(C(=O)c2ccc3c(c2)OCO3)c(N)c1S(=O)(=O)c1ccccc1` it was inactive: -11%; in that of `Cc1ccccc1CNC(=O)c1ccc(NC(=O)c2nsc3ccccc23)cc1`, inactive: -8.49%; in that of `O=C(Cn1c(=O)oc2cc(S(=O)(=O)N3CCCCCC3)ccc21)Nc1cccc(C(F)(F)F)c1`, inactive: -13.9%.
In the case of `CCn1c(=O)cc(SCC(=O)Nc2ccc(C)c(F)c2)c2ccccc21` it was inactive: -8.66%.
As to `Cc1cc(C)cc(NS(=O)(=O)c2ccc3[nH]cc(C(=O)NCc4ccco4)c(=O)c3c2)c1`, the “activation” value was inactive: -10.2%.
`COc1cccc(NC(=O)CCc2nnc3n(CC(C)C)c(=O)c4ccccc4n23)c1`: the “activation” value was inactive: -1.33%.
As for `CC(=O)c1ccc(NC(=O)CN2C(=O)CCc3cc(S(=O)(=O)N4CCC(C)CC4)ccc32)cc1`, the figure is inactive: 4.33%; as for `O=C(/C=C/c1ccccc1)Nc1nc(-c2cccs2)ns1`, inactive: -10.7%; as for `N#C/C(=C\c1ccccc1F)c1nc2ccccc2c(=O)[nH]1`, inactive: -12.7%.
As for `CCC(O)c1nc2ccccc2n1CCOc1cc(C)cc(C)c1` (stereo not drawn), the figure is inactive: 2.55%.
In the case of `O=C(Nc1ccccc1F)c1oc2ccccc2c1NC(=O)C12CC3CC(CC(C3)C1)C2` it was inactive: 2.6%.
For the compound `COc1ccc(NC(=O)CSc2n[nH]c(-c3ccccc3)n2)cc1Cl`, the “activation” value is inactive: -6.04%.
`O=C(Nc1ccc(Cl)c(C(F)(F)F)c1)c1cc2nc(-c3ccc4c(c3)OCO4)cc(C(F)(F)F)n2n1`: the “activation” value is inactive: -26.6%.
